Reference: the supplement of paper PMC12217912
The list shows a part of the results. The full chains were built here from the parent and the listed change. Inactive controls read about 0.05.

B1: TEV protease; numbered along this chain (parent)
chain: MGESLFKGPRDYNPISSSICHLTNESDGHTTSLYGIGFGPFIITNKHLFRRNNGTLVVQSLHGVFKVKDTTTLQQHLVDGRDMIIIRMPKDFPPFPQKLKFREPQREERICLVTTNFQTKSMSSMVSDTSCTFPSGDGIFWKHWIQTKDGQCGSPLVSTRDGFIVGIHSASNFTNTNNYFTSVPKNFMELLTNQEAQQWVSGWRLNADSVLWGGHKVFMVKPEEPFQPVKEATQL

Variants of: B1
Experiment: raw area under fraction-flipped curve 0-4 h after induction (AUC4h, not background-subtracted), DNA-recorder readout of cleavage of the substrate (dimensionless); higher = more cleavage of the substrate by the protease variant
Details: temperature: 34 °C; time window: 0-4 h after rhamnose induction
Experimental: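 In vivo DNA recorder in E. coli TOP10(DE3) ΔrhaA at 34 °C. Each TEVp single-site mutant (parent TEVp 0) is paired with a single-site variant of the 7-mer TEVs (canonical ENLYFQ|S). The substrate sits between flexible linkers in a Bxb1-sfGFP-TEVs-SsrA fusion, so cleavage stabilises Bxb1 and speeds flipping of a recombination array, read by NGS. The value is the raw area under the fraction-flipped curve over 0-4 h after rhamnose induction (AUC4h), with ≥20 reads per time point. It is not background-subtracted; inactive controls average about 0.047.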
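Further: Bxb1 expression induced with 0.2% (w/v) L-rhamnose at OD600 near 0.5, cultures sampled hourly, flipped fraction per protease–substrate barcode pair counted by paired-end Illumina sequencing.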

Row | Variant | area with substrate ENLAFQS | area with substrate ENLCFQS | area with substrate ENLDFQS | area with substrate ENLFFQS | area with substrate ENLHFQS | area with substrate ENLLFQS | area with substrate ENLPFQS | area with substrate ENLQFQS | area with substrate ENLRFQS | area with substrate ENLSFQS | area with substrate ENLVFQS | area with substrate ENLEFQS | area with substrate ENLGFQS | area with substrate ENLMFQS | area with substrate ENLNFQS | area with substrate ENLTFQS | area with substrate ENLIFQS | area with substrate ENLKFQS | area with substrate ENLWFQS
1 | MGESLFKGPRDYNPISSSICHLTNESDGHTTSLYGIGFGPFIITNKHLFRRNNGTLVVQSLHGVFKVKDTTTLQQHLVDGRDMIIIRMPKDFPPFPQKLKFREPQREERICLVTTNFQTKSMSSMVSDTSCTFPSGDGIFWKHWIQTKDGACGSPLVSTRDGFIVGIHSASNFTNTNNYFTSVPKNFMELLTNQEAQQWVSGWRLNADSVLWGGHKVFMVKPEEPFQPVKEATQL [Q151A] | 0.0589 | 0.0614 | 0.0821 | 0.0755 | 0.0982 | 0.0629 | 0.0647 | 0.0613 | 0.0609 | 0.0413 | 0.076 |  |  |  |  |  |  |  | 
2 | MGESLFKGPRDYNPISSSICHLTNESDGHTTSLYGIGFGPFIITNKHLFRRNNGTLVVQSLHGVFKVKDTTTLQQHLVDGRDMIIIRMPKDFPPFPQKLKFREPQREERICLVTTNFQTKSMSSMVSDTSCTFPSGDGIFWKHWIQTKDGRCGSPLVSTRDGFIVGIHSASNFTNTNNYFTSVPKNFMELLTNQEAQQWVSGWRLNADSVLWGGHKVFMVKPEEPFQPVKEATQL [Q151R] | 0.0647 |  |  | 0.0666 | 0.0685 | 0.0693 | 0.0647 |  | 0.0663 |  | 0.0506 | 0.0596 | 0.0728 | 0.0711 | 0.0584 | 0.059 |  |  | 
3 | MGESLFKGPRDYNPISSSICHLTNESDGHTTSLYGIGFGPFIITNKHLFRRNNGTLVVQSLHGVFKVKDTTTLQQHLVDGRDMIIIRMPKDFPPFPQKLKFREPQREERICLVTTNFQTKSMSSMVSDTSCTFPSGDGIFWKHWIQTKDGQCGSPLVSTREGFIVGIHSASNFTNTNNYFTSVPKNFMELLTNQEAQQWVSGWRLNADSVLWGGHKVFMVKPEEPFQPVKEATQL [D161E] | 0.0527 | 0.0644 | 0.0545 | 0.0747 | 0.073 | 0.0664 | 0.0512 | 0.0522 | 0.0674 | 0.0556 | 0.0717 | 0.0481 | 0.0585 | 0.062 | 0.066 | 0.0738 | 0.0576 | 0.0614 | 0.0535
4 | MGESLFKGPRDYNPISSSICHLTNESDGHTTSLYGIGFGPFIITNKHLFRRNNGTLVVQSLHGVFKVKDTTTLQQHLVDGRDMIIIRMPKDFPPFPQKLKFREPQREERICLVTTNFQTKSMSSMVSDTSCTFPSGDGIFWKHWIQTKDGQCGSPLVSRRDGFIVGIHSASNFTNTNNYFTSVPKNFMELLTNQEAQQWVSGWRLNADSVLWGGHKVFMVKPEEPFQPVKEATQL [T159R] | 0.0487 | 0.0972 | 0.0564 |  | 0.0657 | 0.0589 |  |  |  | 0.0702 |  |  |  |  | 0.0702 | 0.0499 |  |  | 
5 | MGESLFKGPRDYNPISSSICHLTNESDGHTTSLYGIGFGPFIITNKHLFRRNNGTLVVQSLHGVFKVKDTTTLQQHLVDGRDMIIIRMPKDFPPFPQKLKFREPQREERICLVTTNFQTKSMSSMVSDTSCTFPSGDGIFWKHWIQCKDGQCGSPLVSTRDGFIVGIHSASNFTNTNNYFTSVPKNFMELLTNQEAQQWVSGWRLNADSVLWGGHKVFMVKPEEPFQPVKEATQL [T147C] | 0.0651 |  |  |  |  |  | 0.0922 |  |  | 0.0663 |  | 0.0982 |  |  |  |  |  |  | 
6 | MGESLFKGPRDYNPISSSICHLTNESDGHTTSLYGIGFGPFIITNKHLFRRNNGTLVVQSLHGVFKVKDTTTLQQHLVDGRDMIIIRMPKDFPPFPQKLKFREPQREERICLVTTNFQTKSMSSMVSDTSCTFPSGDGIFWKHWIQLKDGQCGSPLVSTRDGFIVGIHSASNFTNTNNYFTSVPKNFMELLTNQEAQQWVSGWRLNADSVLWGGHKVFMVKPEEPFQPVKEATQL [T147L] | 0.0593 |  | 0.0743 | 0.0719 |  | 0.0593 | 0.0439 | 0.0784 | 0.0621 | 0.0624 | 0.0692 | 0.0608 | 0.094 |  | 0.0677 |  | 0.0527 | 0.0667 | 0.0686
7 | MGESLFKGPRDYNPISSSICHLTNESDGHTTSLYGIGFGPFIITNKHLFRRNNGTLVVQSLHGVFKVKDTTTLQQHLVDGRDMIIIRMPKDFPPFPQKLKFREPQREERICLVTTNFQTKSMSSMVSDTSCTFPSGDGIFWKHWIQTKDGQCGSPLVSTRDGFRVGIHSASNFTNTNNYFTSVPKNFMELLTNQEAQQWVSGWRLNADSVLWGGHKVFMVKPEEPFQPVKEATQL [I164R] | 0.0611 | 0.0521 | 0.061 | 0.0847 | 0.045 |  |  | 0.055 | 0.0544 | 0.0571 | 0.052 | 0.0547 |  |  | 0.063 |  |  | 0.0652 | 0.0467
8 | MGESLFKGPRDYNPISSSICHLTNESDGHTTSLYGIGFGPFIITNKHLFRRNNGTLVVQSLHGVFKVKDTTTLQQHLVDGRDMIIIRMPKDFPPFPQKLKFREPQREERICLVTTNFQTKSMSSMVSDTSCTFPSGDGIFWKHWIQTKDGQCGSPLYSTRDGFIVGIHSASNFTNTNNYFTSVPKNFMELLTNQEAQQWVSGWRLNADSVLWGGHKVFMVKPEEPFQPVKEATQL [V157Y] | 0.0548 |  | 0.0567 | 0.0679 | 0.0634 |  | 0.0584 | 0.0583 | 0.0747 |  | 0.0448 | 0.0578 | 0.0742 |  | 0.0487 |  | 0.061 | 0.0694 | 
9 | MGESLFKGPRDYNPISSSICHLTNESDGHTTSLYGIGFGPFIITNKHLFRRNNGTLVVQSLHGVFKVKDTTTLQQHLVDGRDMIIIRMPKDFPPFPQKLKFREPQREERICLVTTNFQTKSMSSMVSDTSCTFPSGDGIFWKHWIQTKDGQCWSPLVSTRDGFIVGIHSASNFTNTNNYFTSVPKNFMELLTNQEAQQWVSGWRLNADSVLWGGHKVFMVKPEEPFQPVKEATQL [G153W] | 0.0681 | 0.0515 | 0.0656 | 0.059 |  |  | 0.0622 |  |  |  |  |  |  |  |  |  |  |  | 
